# Measurements from PubChem BioAssay AID485294 (National Center for Advancing Translational Sciences (NCATS), 2010).
# Hit rate of the full screen: of about 370,000 compounds, about 150 (0.041%) were called active. The inconclusive results got no clear call from the source; some entries with a clear call stand among them for comparison. Calls follow the shape of the dose curve; as a rule, active = well fitted inhibition curve with a large enough effect; inconclusive = small, poorly fitted or top-dose-only effect; inactive = flat fitted curve, though single readings scatter. Potencies of inconclusive entries are left out as doubtful fits.
# Molecular target: Beta-lactamase (Escherichia coli (strain K12)) (UniProt P00811)
# Sequence of UniProt P00811 (P00811 whole entry, looked up): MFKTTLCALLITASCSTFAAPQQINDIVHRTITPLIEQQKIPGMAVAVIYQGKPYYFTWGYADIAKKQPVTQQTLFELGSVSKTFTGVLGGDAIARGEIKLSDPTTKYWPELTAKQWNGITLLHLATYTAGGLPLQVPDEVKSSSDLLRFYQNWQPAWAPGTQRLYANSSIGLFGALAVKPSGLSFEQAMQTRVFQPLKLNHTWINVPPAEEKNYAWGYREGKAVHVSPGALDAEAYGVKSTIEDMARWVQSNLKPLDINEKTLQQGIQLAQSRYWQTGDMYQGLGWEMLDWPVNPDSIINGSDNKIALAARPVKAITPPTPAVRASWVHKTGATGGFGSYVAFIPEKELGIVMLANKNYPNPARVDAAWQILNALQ
# Assay: qHTS Inhibitors of AmpC Beta-Lactamase (assay with detergent); also: nearly all actives have a fitted effect of over 25% in size;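 as to activity change, negative = inhibition: 0% = no-compound wells and -100% = no-enzyme wells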
# Settings: AmpC hydrolysis of nitrocefin, absorbance 480 nm, 0.01% Triton; activity change, negative = inhibition: at 114 µM (top of the series)
# In short: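 AmpC (5.3 nM in the dispensed reagent) in 20 mM phosphate pH 7.0 with 0.01% (detergent screen) or 0.0001% Triton X-100 was preincubated with compounds for 15 min at room temperature. Nitrocefin was then added from an 800 uM solution, and hydrolysis was followed at 480 nm.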
# Potency is read from the fitted curve at half-maximal effect; tags tell the direction and shape of the fitted curve.
SMILES,"activity change, negative = inhibition",Potency
COc1cccc(-c2nc(CS(=O)CC(=O)NC(C)CCc3ccccc3)c(C)o2)c1 (stereo not given),inactive: 3.73%,
O=C(CCc1ccccc1)NNC(=O)COc1ccccc1,,"inconclusive [inhibitor, single point]"
Cc1cc(C(=O)COc2ccc3ccc(=O)oc3c2)c(C)n1Cc1cccs1,,"inconclusive [inhibitor, partial curve]"
FC(F)(F)c1cnc(Sc2nnc(-c3cccs3)n2CC2CCCO2)c(Cl)c1 (stereo not given),inactive: 1.05%,
CCC1(c2ccc(F)cc2)NC(=O)N(CC(=O)Nc2ccc(-c3nc4ccc(C)cc4s3)cc2)C1=O (stereo not given),,"inconclusive [inhibitor, full curve, poor fit]"
Cc1ccc(CSc2nnc(SCC(=O)N/N=C/C=C/c3ccco3)s2)cc1,inactive: -9.21%,
Cc1cc(NC(=O)CSc2nnc(C3COc4ccccc4O3)o2)no1 (stereo not given),,"inconclusive [inhibitor, partial curve]"
O=C1C2C3C=CC(C3)C2C(=O)N1Nc1ccc([N+](=O)[O-])cc1[N+](=O)[O-] (stereo not given),,"inconclusive [inhibitor, partial curve]"
O=C1c2ccccc2-c2cccc(C(=O)N3CCCCCC3)c21,,"inconclusive [inhibitor, partial curve]"
CCCCn1c(O)c(C(CC)=NCc2ccc3c(c2)OCO3)c(=O)[nH]c1=O,,"inconclusive [inhibitor, full curve]"
Cc1cccc(OC(=O)c2sc3ncn(C)c(=O)c3c2C)c1,,"inconclusive [inhibitor, single point]"
COC(=O)C1CCN(S(=O)(=O)Cc2ccccc2)CC1,,"inconclusive [inhibitor, full curve, poor fit]"
CCCCCn1c(SCC(=O)OCC)nc2cc(C(=O)N3CCC(C(N)=O)CC3)ccc2c1=O,,"inconclusive [inhibitor, single point]"
Cc1cc(C(=O)COC(=O)c2cccc(S(=O)(=O)N(C)C)c2)c(C)n1CC1CCCO1 (stereo not given),,"inconclusive [inhibitor, partial curve]"
COC(=O)c1oc2nc(C)cc(C)c2c1N,,"inconclusive [inhibitor, full curve]"
CCOc1ccc2nc(NC(=O)C(NS(=O)(=O)c3cccs3)C(C)C)sc2c1 (stereo not given),,"inconclusive [inhibitor, full curve, poor fit]"
Cc1ccc(S(=O)(=O)c2nnn3c2nc(N2CCOCC2)c2ccccc23)cc1,,"inconclusive [inhibitor, full curve, poor fit]"
COC(=O)c1cc(Br)c(=O)n(Cc2cccnc2)c1,,"inconclusive [inhibitor, full curve, poor fit]"
CCOc1ccc(-c2cc3c(=O)n(CC(=O)NCc4ccc(F)cc4)ccn3n2)cc1,inactive: 10.9%,
C=CCOn1c(C)c(C(C)=O)c2c3nonc3ccc21,inactive: -0.209%,
Cc1ccccc1OCC(=O)Nc1ccccc1C(=O)N1CCCCC1,inactive: 3.63%,
COc1cccc(NC(=O)c2c(C)oc3nc(C)nc(N4CCCC4)c23)c1,inactive: -4.37%,

SMILES,"activity change, negative = inhibition",Potency
COc1ccc(OC(=O)N2CCOCC2)cc1,,"inconclusive [inhibitor, full curve, poor fit]"
Cc1ccc(OC(=O)C(F)(F)F)c2c1NCCC2,,"inconclusive [inhibitor, full curve, poor fit]"
Cc1nnc(SCC(=O)N2CCC(c3noc4ccc(F)cc34)CC2)s1,inactive: 4.84%,
O=C(CSc1nnc(Nc2ccccc2)s1)NCC1CCCO1 (stereo not given),,"inconclusive [inhibitor, full curve, poor fit]"
CCC(=O)N1CCc2cc(Br)cc(S(=O)(=O)C3(C(=O)OC)CC3)c21,inactive: 3.7%,
CCCn1c(SCC(=O)NCc2ccc3c(c2)OCO3)n[nH]c1=O,,"inconclusive [inhibitor, full curve, poor fit]"
Cc1cc(O)cc(O)c1C(=O)Cc1cnn(-c2ccccc2)c1,,"inconclusive [inhibitor, single point]"
COc1ccccc1OCCn1c(SCC(=O)O)nc2ccccc21,,"inconclusive [inhibitor, partial curve, poor fit]"
O=C(c1cc(COc2c(F)cccc2F)on1)N1CCC(c2ccccc2F)C1 (stereo not given),inactive: 6.34%,
COC(=O)c1ccc([C@H]2CC(=O)O2)cc1,,"inconclusive [inhibitor, full curve, poor fit]"
O=C(CN1C(=O)c2ccccc2Sc2ccc(C(=O)N3CCOCC3)cc21)Nc1ccc(Cl)cc1F,inactive: 1.35%,
COc1ccc(-c2csc3ncnc(NCCCO)c23)cc1,,"inconclusive [inhibitor, full curve, poor fit]"
Cc1ccc(C)c(NC(=O)C2=CCN(S(=O)(=O)c3ccc(F)cc3)CC2)c1,,"inconclusive [inhibitor, full curve, poor fit]"
O=C(CNC(=O)c1ccccc1)OCC(=O)c1ccccc1Cl,,"inconclusive [inhibitor, partial curve, poor fit]"
O=C(Cc1c[nH]c2ccccc12)NCc1ccc2c(c1)OCO2,,"inconclusive [inhibitor, partial curve, poor fit]"
COCCNC(=O)CS(=O)Cc1nc(-c2ccc(OC)cc2)oc1C (stereo not given),,"inconclusive [inhibitor, partial curve, poor fit]"
CC(=O)N1CCC(C(=O)Nc2ccc(S(=O)(=O)N3CCC(C)CC3)cc2)CC1,inactive: -0.588%,
CCCN1Cc2cccc(C(=O)Nc3cc(Cl)ccc3C)c2C1=O,inactive: -1.76%,
Cc1ccc(C)c(NC(=O)C(CC(C)C)N2Cc3ccccc3C2=O)c1 (stereo not given),inactive: 3.76%,
O=C(COc1ccccc1[N+](=O)[O-])N/N=C/c1cccs1,,"inconclusive [inhibitor, single point]"
COc1ccc(C2C(C(C)=O)=C(O)C(=O)N2C)c(OC)c1 (stereo not given),,"inconclusive [inhibitor, single point]"
CCOC(=O)N1CCN(C(=O)CN(c2cccc(C(F)(F)F)c2)S(C)(=O)=O)CC1,,"inconclusive [inhibitor, full curve, poor fit]"

SMILES,"activity change, negative = inhibition",Potency
O=C(Nc1ccccn1)C1CCN(C(=O)c2ccc(F)cc2)CC1,,"inconclusive [inhibitor, partial curve, poor fit]"
CCOC(=O)c1c(C)c(C(=O)O)n(C)c1C,,"inconclusive [inhibitor, full curve, poor fit]"
CC(C)c1ccc(NC(=O)C(c2ccccc2)N2CCN(C(=O)c3ccco3)CC2)cc1 (stereo not given),,"inconclusive [inhibitor, partial curve, poor fit]"
CSc1nnc2n(-c3ccc(C)cc3)c(=O)c3c4c(sc3n12)COC(C(C)C)C4 (stereo not given),,"inconclusive [inhibitor, full curve, poor fit]"
COc1ccc(OC)c(NC(=O)Cc2ccc(NC3=NC4CS(=O)(=O)CC4S3)cc2)c1 (stereo not given),,"inconclusive [inhibitor, single point]"
CCOc1ccc(OCC(=O)N(CCC2=CCCCC2)c2c(N)n(Cc3ccccc3)c(=O)[nH]c2=O)cc1,,"inconclusive [inhibitor, full curve, poor fit]"
Cc1ccc(NC(=O)CN(C)C(=O)c2cn(Cc3ccccc3)nc2-c2cccnc2)cc1,,"inconclusive [inhibitor, full curve, poor fit]"
COc1cc(/C=C/C(=O)OCC(=O)N2CC(=O)Nc3ccccc32)ccc1O,inactive: -12.7%,
COc1cc(NC(=O)c2ccc3c(c2)OCCO3)ccc1NC(=O)c1ccccc1Cl,inactive: 4.85%,
CC(C)n1ncc2c(C(=O)Nc3cccc(S(=O)(=O)N(C)C)c3)cc(C3CC3)nc21,inactive: -21%,
Cc1ccc(C(=O)CSc2nc(C(C)C)nc3ccccc23)cc1,inactive: -1.76%,
COc1cccc(-c2cn(C[C@H]3CC[C@@H]([C@@H]4CC[C@H](Cn5cc(-c6cccc(OC)c6)nn5)O4)O3)nn2)c1,,"inconclusive [inhibitor, full curve]"
CCN(CCCNC(=O)CCNC(=O)Cn1ccc2ccccc2c1=O)c1ccccc1,,"inconclusive [inhibitor, full curve, poor fit]"
O=C(CCC(=O)N1CCc2ccccc2C1)N1CCN(S(=O)(=O)c2ccccc2)CC1,,"inconclusive [inhibitor, full curve, poor fit]"
Cc1cc(C)cc(NC(=O)Nc2ccc(N3CCCCC3)cc2)c1,inactive: 6.92%,
O=C(Nc1sc2c(c1C(=O)NCC1CCCO1)CCCC2)c1cccs1 (stereo not given),,"inconclusive [inhibitor, partial curve, poor fit]"
CN(CC(=O)Nc1ccc(Cl)cc1)S(=O)(=O)c1cccc2cccnc12,,"inconclusive [inhibitor, full curve, poor fit]"
O=C(NC1CCCCC1)C(c1ccccn1)N(C(=O)c1csnn1)c1ccccc1 (stereo not given),,"inconclusive [inhibitor, single point]"
COc1ccccc1CNC(=O)CSc1ncc(S(=O)(=O)c2ccc(C)c(Cl)c2)c(=O)[nH]1,inactive: 17.7%,
COc1ccc(NC(=O)N2CCn3c2nc2ccccc23)cc1,,"inconclusive [inhibitor, full curve, poor fit]"
Cc1ccc(-c2nnn(CC(=O)N(c3cccc(F)c3)C(C(=O)NC3CCCC3)c3ccncc3)n2)o1 (stereo not given),,"inconclusive [inhibitor, full curve, poor fit]"
